Among all 52,000 compounds or so, about 1,700 (3.3%) were called active. No stated cut-off is given here; in the data, active means survival mostly below about 52% (no sharp cut-off); inactive means mostly above about 56%. The list shows a part of the results.
Tested on: Wild type
Experiment: growth inhibition of S. aureus wild type versus tarO mutant, primary screen, teichoic acid synthesis inhibitors, RN4220, OD600 (AID 463173)
Settings: S. aureus RN4220 wild type/DeltatarO growth, OD600, 18 h, stronger effect = lower value, screened at 18.75 µg/mL (by protocol)

Row | Compound | survival
1 | CCC(=O)N1c2ccccc2CC1C(=O)N1CCN(c2ccccc2)CC1 (stereo unspecified) | inactive: 71%
2 | CCN(C(=O)Cc1c(C(=O)O)[nH]c2ccccc12)c1ccc(OC)cc1 | inactive: 58%
3 | CCCC(=O)NCCc1ccc(F)cc1 | inactive: 116%
4 | CC(C)Cc1nn2c(=O)cc(COC(=O)c3ccc(NC(=O)c4cccs4)cc3)nc2s1 | inactive: 127%
5 | CC(=O)c1ccc(N2CCN(C(=O)C3CCN(S(=O)(=O)c4cccc5nonc45)CC3)CC2)cc1 | inactive: 55%
6 | CCOc1ccccc1NC(=O)Cn1c(=O)ccc2cc(S(=O)(=O)N3CCC(C)CC3)ccc21 | inactive: 65%
7 | CCOC(=O)c1ccc(NC(=O)CCc2c(C)nc3c(c(C)nn3C)c2C)cc1 | inactive: 94%
8 | COc1cc(C(Nc2ccc(S(=O)(=O)NCC3CCCO3)cc2)C(=O)NC(C)(C)C)cc(OC)c1OC (stereo unspecified) | inactive: 105%
9 | O=c1c2c3c(sc2nnn1Cc1ccc(Br)cc1)CCCC3 | inactive: 28%
10 | O=S(=O)(NCCc1csc(-c2ccc(F)cc2)n1)c1ccc(Cl)cc1 | inactive: 85%
11 | Cc1ccc(OCCCn2c(C3CC(=O)N(c4cccc(Cl)c4)C3)nc3ccccc32)c(C)c1 (stereo unspecified) | inactive: 90%
12 | CCOC(=O)C1CCN(C(=O)C2COc3ccccc3C2)CC1 (stereo unspecified) | inactive: 68%
13 | Cc1ccc(CN2CCSc3ccc(C(=O)N4CCN(c5cccc(C)c5C)CC4)cc32)cc1 | inactive: 17%
14 | O=C(CSc1nccn1Cc1ccc(Cl)cc1)NC1CCCC1 | inactive: 73%
15 | COc1ccc(-c2cnc(C)o2)cc1S(=O)(=O)Nc1ccc(C)c(F)c1 | inactive: 60%
16 | O=C(c1cc2ccccc2oc1=O)N(Cc1cccc(Cl)c1)C1CCS(=O)(=O)C1 (stereo unspecified) | inactive: 126%
17 | COc1cccc(-n2ccnc2SCC(=O)Nc2cccc(C)c2C)c1 | inactive: 97%
18 | O=C(CN1CCC(n2nnc3ccccc32)CC1)Nc1cccc(F)c1 | inactive: 106%
19 | CCCC(=O)NCC(c1ccc2c(c1)OCO2)N1CCN(c2ccc(F)cc2)CC1 (stereo unspecified) | inactive: 71%
20 | CCc1ccc(NC(=O)Cn2cnc3sc(C)c(S(=O)(=O)N4CCC(C)CC4)c3c2=O)cc1 | inactive: 97%
21 | Cc1sc2nc(CN(CCc3ccccc3)C(=O)c3ccco3)[nH]c(=O)c2c1C | inactive: 100%
22 | COc1ccc(-n2ncc(C(=O)NCc3ccccc3)c2C2CCN(C(=O)OC(C)(C)C)CC2)cc1 | inactive: 67%
23 | COc1ccc(-c2nc3c(C#N)c[nH]n3c2NC2CCCCC2)c(OC)c1 | inactive: 78%

Row | Compound | survival
24 | Cc1ccc(OCc2nc3ccccc3n2CC(C)C)cc1 | active: -1%
25 | COc1ccc(CCNC(=O)CCn2c(=O)c3cccn3c3ccc(F)cc32)c(OC)c1OC | inactive: 54%
26 | CCOc1ccccc1CNC(=O)Nc1cn(CC(C)C)c(=O)c2ccccc12 | inactive: 95%
27 | Cc1cc2c(cc1S(=O)(=O)NCc1ccc(N(C)C)cc1)OCC(=O)N2 | inactive: 83%
28 | CC(Oc1ccccc1)C(=O)Nc1nc2ccc(S(N)(=O)=O)cc2s1 (stereo unspecified) | inactive: 74%
29 | CC1(c2ccc(Cl)cc2)CC(C)(C)N(C(=O)c2ccccc2)c2ccccc21 (stereo unspecified) | active: -11%
30 | Cc1ccc(CN2CCC(CNc3ncnc4onc(-c5ccc(Cl)cc5)c34)CC2)cc1 | inactive: 77%
31 | COc1ccc(N(CC(=O)NC(C)c2ccccc2)S(=O)(=O)c2c(C)noc2C)cc1 (stereo unspecified) | inactive: 88%
32 | CCCN(C(=O)c1cc2c(s1)-c1ccccc1SC2)c1ccccc1F | active: 1%
33 | COc1cc(C2NC(=O)NC(C)=C2C(=O)Nc2cc(C)cc(C)c2)ccc1O (stereo unspecified) | inactive: 69%
34 | CCOC(=O)c1c(C)c(-c2ccccc2)n(CC(=O)Nc2cc(OC)cc(OC)c2)c1C | inactive: 88%
35 | CCOC(=O)c1noc2ncnc(N3CCN(c4ccccc4OC)CC3)c12 | inactive: 73%
36 | CC(C(=O)O)c1n[nH]c(=O)c2ccccc12 (stereo unspecified) | inactive: 109%
37 | COC(=O)CNC(=O)Nc1cc(C(=O)NCc2ccc(C)cc2)ccc1N1CCCC1 | inactive: 71%
38 | CC(C)(C)NS(=O)(=O)c1ccc2nc(NC(=O)c3cccnc3)sc2c1 | inactive: 75%
39 | CCOC(=O)/C(C#N)=C\N1CCOCC1 | inactive: 107%
40 | COC(=O)C1CCN(S(=O)(=O)c2cc3c4c(c2)C(C)C(=O)N4CCC3)CC1 (stereo unspecified) | inactive: 125%
41 | CC(=O)N1c2ccccc2CC1C(=O)N1CCN(c2ccc(F)cc2)CC1 (stereo unspecified) | inactive: 132%
42 | COc1ccc(C)cc1NC(=O)c1oc2ccc(S(=O)(=O)N(C)C3CCCCC3)cc2c1C | inactive: 74%
43 | Cc1ccc(Cn2c(SCC(=O)NCc3ccc(Cl)cc3)nc3ccsc3c2=O)cc1 | inactive: 128%
44 | CCc1cc(C(=O)Nc2c(C)nn(Cc3ccc(C)cc3)c2C)no1 | inactive: 78%
45 | CC(C)(C)c1cc(C(C)(C)C)c2oc(=O)c(-c3nc4ccccc4[nH]3)cc2c1 | inactive: 73%
46 | O=C(CSc1nc2ccccc2c2nc(-c3ccccc3)nn12)Nc1ccc(Br)cc1 | inactive: 70%

Row | Compound | survival
47 | COCCCNC(=O)Cn1c(=O)n(-c2ccc(C)cc2)c(=O)c2c1c1cc(C)ccc1n2C | inactive: 73%
48 | COc1ccc2c(c1)CCN(Cc1cc3sccc3n1CC1CCCCC1)C2 | inactive: 108%
49 | CCS(=O)(=O)N1CC(=O)N(c2ccccc2C)C(C)(C(=O)NC2CCCCC2)C1 (stereo unspecified) | inactive: 82%
50 | Cc1ccc(NC(=O)CN2CCCN(Cc3cc(C)ccc3C)S2(=O)=O)c(Cl)c1 | inactive: 55%
51 | COc1cccc(N2CCN(C(=O)C3CCC(CNS(=O)(=O)c4ccc(Br)s4)CC3)CC2)c1 (stereo unspecified) | inactive: 71%
52 | Cc1ccc(Cl)cc1N1CCN(C(=O)c2cn(C3CCCCC3)c(=O)c3c2c2ccccc2n3C)CC1 | inactive: 76%
53 | CN(C)c1ccc(C(CNC(=O)COc2ccc(Cl)cc2)N2CCOCC2)cc1 (stereo unspecified) | inactive: 47%
54 | NC(=O)c1cc(S(=O)(=O)NCc2ccccc2)cs1 | inactive: 112%
55 | CC(C)(C)NC(=O)CN1CCN(c2nc(-c3ccc(Cl)cc3)cs2)CC1 | inactive: 124%
56 | COc1cccc(-c2nc3c(c(SCc4ccccc4)n2)Cc2c(CO)cnc(C)c2O3)c1 | inactive: 101%
57 | C=CCc1c(C)nc2nc(SCC(=O)Nc3ccccc3CC)nn2c1C | inactive: 47%
58 | CCOc1ccc(CCNC(=O)CN2CCN(Cc3ccc(F)cc3Cl)C2=O)cc1OCC | inactive: 72%
59 | CCCn1c(=O)n(-c2ccccc2)c(=O)c2sc3ccccc3c21 | inactive: 93%
60 | CN(C(=O)CCNC(=O)Cn1cnc2ccccc2c1=O)c1ccccc1F | inactive: 79%
61 | COC(=O)CN1C(=O)CSc2ccc(S(=O)(=O)Nc3ccc(Cl)cc3C)cc21 | inactive: 130%
62 | CCCOc1ccccc1C(=O)N1CCC(c2nc3ccccc3s2)CC1 | inactive: 68%
63 | CCOC(=O)CSc1nc2cc3c(cc2c(=O)n1CCCC(=O)NCc1ccc2c(c1)OCO2)OCO3 | inactive: 84%
64 | CC(C)Cc1nn2c(=O)cc(COC(=O)c3cccc(NC(=O)CCc4ccccc4)c3)nc2s1 | inactive: 75%
65 | C=Cc1ccc(CSc2nc(-c3ccc(OC)cc3)nc3c2Cc2c(CO)cnc(C)c2O3)cc1 | inactive: 83%
66 | Cc1ccc2ccc(C(Nc3ccccn3)c3ccccc3)c(O)c2n1 (stereo unspecified) | inactive: 69%
67 | COc1ccccc1OCc1ccoc1C(=O)O | inactive: 115%
68 | Clc1ccc(CCNc2ncnc3c2c(-c2ccccc2)cn3-c2ccccc2)cc1 | inactive: 70%
69 | COc1ccc(C(=O)CN2C(=O)N(c3cc(C)cc(C)c3)S(=O)(=O)c3ccccc32)cc1 | inactive: 76%

Row | Compound | survival
70 | COc1ccccc1C(=O)Nc1nc2ccc(S(=O)(=O)N3CCCC3)cc2s1 | inactive: 45%
71 | NCCc1nnc(SCc2ccc(Cl)cc2)o1 | inactive: 148%
72 | Cc1cccc(NCc2ccc(N(C)C)cc2)n1 | inactive: 99%
73 | CCCCC(=O)Nc1cccc(OCc2cc(=O)n3ccccc3n2)c1 | inactive: 72%
74 | Cc1ccc(Nc2c(-c3ccc(C)cc3)nc3cnccn23)cc1 | inactive: 23%
75 | COc1ccccc1CNC(=O)Cn1ncc2c(=O)oc3ccc(C)cc3c21 | inactive: 86%
76 | Cc1ccccc1CS(=O)(=O)Cc1ccc(C(=O)NCCc2ccccc2)o1 | inactive: 75%
77 | CCOC(=O)c1ccc(Nc2c(-c3ccc(O)cc3)nc3nc[nH]n23)cc1 | inactive: 81%
78 | COc1cc(C(=O)Nc2cc(C)ccc2OCc2cc(=O)n3cc(C)sc3n2)cc(OC)c1OC | inactive: 70%
79 | O=C(OC1OCCOC1OC(=O)C1CCCCC1)C1CCCCC1 (stereo unspecified) | inactive: 104%
80 | CC(C)c1ccc(CNCCSc2nnnn2C)cc1 | inactive: 85%
81 | Cc1ccc(S(=O)(=O)N=C2SCCCS2)cc1 | inactive: 102%
82 | CCOC(=O)C1CCCN(c2ncnc3c2cnn3-c2ccc(C)c(Cl)c2)C1 (stereo unspecified) | inactive: 75%
83 | Cc1ccc(NC(=O)CSc2nc3c(c(=O)[nH]2)CN(Cc2ccc4c(c2)OCO4)CC3)cc1C | inactive: 80%
84 | Cn1c(=O)c2c(SCC(=O)NCc3ccco3)nc(-c3ccccc3Cl)nc2n(C)c1=O | inactive: 65%
85 | CCOC(=O)c1ccc(NC(=O)c2oc3ccc4c(c3c2C)C(=O)CC(C)(CC)O4)cc1 (stereo unspecified) | inactive: 94%
86 | Cc1nc2c(-c3ccccc3)c(C)nn2c(C)c1CCC(=O)NCc1cccc(Cl)c1 | inactive: 134%
87 | Cc1nnc(NC(=O)c2nc(S(=O)(=O)Cc3ccccc3)ncc2Cl)s1 | inactive: 69%
88 | CCOc1ccc(NC(=O)C(C)Sc2nnc3cc(C)c4ccccc4n23)cc1 (stereo unspecified) | inactive: 75%
89 | CCc1ccccc1NC(=O)c1cc(S(=O)(=O)NCCc2ccc(OC)c(OC)c2)ccc1F | active: 0%
90 | COc1ccc(OCC(=O)Nn2cnnc2)cc1 | inactive: 102%
91 | COc1ccc(-c2nc3cnccn3c2NCc2ccc3c(c2)OCO3)cc1CN1CCOCC1 | inactive: 124%

Source: PubChem BioAssay AID463173 (ICCB-Longwood Screening Facility, Harvard Medical School, 2010)
